Results from PMC4457034.
No constants are given. Whether binding was seen depends on the method and setting. Binding seen in cells or lysates may run through a third protein. Some binding calls cover weakened binding; strength is not graded here. For some of these results: Tags and fused reporters may be left off the sequences shown.

T1: myc-tagged PINK1 (PTEN-induced putative kinase 1) (Drosophila) (UniProt Q0KHV6)
T1 sequence: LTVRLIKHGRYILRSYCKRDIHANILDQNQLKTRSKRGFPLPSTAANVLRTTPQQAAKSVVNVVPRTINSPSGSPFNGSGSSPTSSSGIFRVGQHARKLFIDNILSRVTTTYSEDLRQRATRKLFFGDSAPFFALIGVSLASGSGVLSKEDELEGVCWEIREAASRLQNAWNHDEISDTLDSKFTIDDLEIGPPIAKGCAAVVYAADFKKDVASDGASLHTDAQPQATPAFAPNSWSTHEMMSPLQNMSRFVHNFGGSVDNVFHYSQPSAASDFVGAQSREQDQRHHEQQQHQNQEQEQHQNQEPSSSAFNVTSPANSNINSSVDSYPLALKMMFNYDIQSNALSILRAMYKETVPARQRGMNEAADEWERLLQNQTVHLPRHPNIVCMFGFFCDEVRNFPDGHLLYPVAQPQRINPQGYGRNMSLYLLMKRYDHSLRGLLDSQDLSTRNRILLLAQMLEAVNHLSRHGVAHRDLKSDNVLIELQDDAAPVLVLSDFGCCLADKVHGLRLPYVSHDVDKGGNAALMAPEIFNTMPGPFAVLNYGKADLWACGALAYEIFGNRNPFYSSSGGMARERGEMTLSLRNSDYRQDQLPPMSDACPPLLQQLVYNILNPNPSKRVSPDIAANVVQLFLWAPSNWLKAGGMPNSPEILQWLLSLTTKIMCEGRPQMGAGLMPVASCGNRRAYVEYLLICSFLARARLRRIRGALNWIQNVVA

T2: Porin, endogenous (Drosophila (endogenous in S2R+ cells and flies)) (UniProt Q94920)
T2 sequence: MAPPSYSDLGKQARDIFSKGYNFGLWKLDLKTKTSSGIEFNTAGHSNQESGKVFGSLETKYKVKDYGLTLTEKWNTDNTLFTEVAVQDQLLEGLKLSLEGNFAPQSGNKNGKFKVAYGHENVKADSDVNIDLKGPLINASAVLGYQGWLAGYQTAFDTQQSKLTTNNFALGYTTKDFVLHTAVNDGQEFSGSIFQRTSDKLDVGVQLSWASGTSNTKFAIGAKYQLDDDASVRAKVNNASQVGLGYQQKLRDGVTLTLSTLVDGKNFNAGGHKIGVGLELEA

T3: myc-tagged Porin (Drosophila) (UniProt Q94920)
T3 sequence: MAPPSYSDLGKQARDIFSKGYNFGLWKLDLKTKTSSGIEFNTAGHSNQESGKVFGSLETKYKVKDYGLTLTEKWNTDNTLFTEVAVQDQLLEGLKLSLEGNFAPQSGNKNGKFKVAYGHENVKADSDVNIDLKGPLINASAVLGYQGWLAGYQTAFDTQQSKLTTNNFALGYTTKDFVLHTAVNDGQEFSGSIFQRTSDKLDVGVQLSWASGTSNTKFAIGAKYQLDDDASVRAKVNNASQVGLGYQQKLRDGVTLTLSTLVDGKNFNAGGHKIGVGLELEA

T4: myc-tagged Parkin (Park) (Drosophila) (UniProt Q7KTX7)
T4 sequence: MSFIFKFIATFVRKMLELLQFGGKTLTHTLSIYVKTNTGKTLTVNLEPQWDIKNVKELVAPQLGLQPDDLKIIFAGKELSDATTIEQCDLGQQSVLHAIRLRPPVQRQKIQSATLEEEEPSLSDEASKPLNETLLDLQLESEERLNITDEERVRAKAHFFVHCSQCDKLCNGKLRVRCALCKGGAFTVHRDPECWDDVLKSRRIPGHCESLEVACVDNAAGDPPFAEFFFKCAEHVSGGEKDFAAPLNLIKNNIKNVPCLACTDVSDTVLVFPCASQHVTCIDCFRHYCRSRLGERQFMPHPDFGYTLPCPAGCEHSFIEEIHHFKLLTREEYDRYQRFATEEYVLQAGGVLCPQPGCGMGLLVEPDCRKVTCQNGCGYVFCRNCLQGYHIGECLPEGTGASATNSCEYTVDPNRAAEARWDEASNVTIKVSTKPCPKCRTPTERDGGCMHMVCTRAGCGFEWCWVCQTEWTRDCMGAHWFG


Columns and labels:
[1] = biological target: T1, myc-tagged PINK1 (PTEN-induced putative kinase 1) (Drosophila); assay: co-IP; S2R+ cells treated with clu RNAi, co-transfected with PINK1-myc and Park-FLAG; without CCCP
[2] = biological target: T1, myc-tagged PINK1 (PTEN-induced putative kinase 1) (Drosophila); assay: condition: only control RNAi (endogenous Clu present), normal culture conditions; co-IP; S2R+ cells treated with control (luciferase) RNAi, co-transfected with PINK1-myc and Park-FLAG; normal culture conditions, endogenous Clu present
[3] = biological target: T2, Porin, endogenous (Drosophila (endogenous in S2R+ cells and flies)); assay: co-IP; endogenous proteins, S2R+ extract; IP with commercial anti-TOM20 or anti-Porin antibody; rabbit and mouse IgG as controls
[4] = biological target: T2, Porin, endogenous (Drosophila (endogenous in S2R+ cells and flies)); assay: co-IP; endogenous proteins, fly extract; IP with commercial anti-TOM20 or anti-Porin antibody; rabbit and mouse IgG as controls
[5] = biological target: T1, myc-tagged PINK1 (PTEN-induced putative kinase 1) (Drosophila); assay: co-IP; S2R+ cells transfected with myc-tagged proteins, normal culture conditions; reciprocal IPs (anti-Clu, anti-myc); IP buffer 20 mM HEPES pH 7.4, 50 mM KCl, 0.02% Triton X-100, 1% NP-40 (sub), 1 mM EDTA, 0.5 mM EGTA, 5% glycerol; extract spun at 12,000 g; 4°C overnight; Protein AG magnetic …
[6] = biological target: T3, myc-tagged Porin (Drosophila); assay: as above
[7] = biological target: T4, myc-tagged Parkin (Park) (Drosophila); assay: condition: only normal culture conditions, without CCCP or hydrogen peroxide; co-IP; S2R+ cells transfected with myc-tagged proteins, normal culture conditions; reciprocal IPs (anti-Clu, anti-myc); IP buffer 20 mM HEPES pH 7.4, 50 mM KCl, 0.02% Triton X-100, 1% NP-40 (sub), 1 mM EDTA, 0.5 mM EGTA, 5% glycerol; extract spun at 12,000 g; 4°C overnight; Protein AG magnetic …
[8] = biological target: T4, myc-tagged Parkin (Park) (Drosophila); assay: co-IP; S2R+ cells transfected with myc-tagged Park and stressed with CCCP (10 µM, added after 36 h of transfection) or hydrogen peroxide
[9] = biological target: T1, myc-tagged PINK1 (PTEN-induced putative kinase 1) (Drosophila); assay: co-IP; S2R+ extract, 1% Triton X-100 added to the IP buffer, extract spun at 135,000 g for 30 min (high-speed centrifugation co-IP)
[10] = biological target: T3, myc-tagged Porin (Drosophila); assay: as above

Row | binding [1] | binding [2] | binding [3] | binding [4] | binding [5] | binding [6] | binding [7] | binding [8] | binding [9] | binding [10] | Binder
1 | binds | no binding | – | – | – | – | – | – | – | – | FLAG-tagged Parkin (Park) (protein, UniProt Q7KTX7 1-482) MSFIFKFIATFVRKMLELLQFGGKTLTHTLSIYVKTNTGKTLTVNLEPQWDIKNVKELVAPQLGLQPDDLKIIFAGKELSDATTIEQCDLGQQSVLHAIRLRPPVQRQKIQSATLEEEEPSLSDEASKPLNETLLDLQLESEERLNITDEERVRAKAHFFVHCSQCDKLCNGKLRVRCALCKGGAFTVHRDPECWDDVLKSRRIPGHCESLEVACVDNAAGDPPFAEFFFKCAEHVSGGEKDFAAPLNLIKNNIKNVPCLACTDVSDTVLVFPCASQHVTCIDCFRHYCRSRLGERQFMPHPDFGYTLPCPAGCEHSFIEEIHHFKLLTREEYDRYQRFATEEYVLQAGGVLCPQPGCGMGLLVEPDCRKVTCQNGCGYVFCRNCLQGYHIGECLPEGTGASATNSCEYTVDPNRAAEARWDEASNVTIKVSTKPCPKCRTPTERDGGCMHMVCTRAGCGFEWCWVCQTEWTRDCMGAHWFG
2 | – | – | binds | binds | binds | binds | no binding | binds | binds | binds | Clueless (Clu), endogenous (protein, UniProt A1ZAB5 1-1448) MALETEAKNSNATATGDATATATKASGKAKENNNTAGGKKNLNPNSNQQNSNQNLVNGNGTAADGPAAKKKGKKNRNKSPTEPTTEAVLSNGHAEKPTVVDAVEDNADTNANVEKPQEGGAPDAEADGDDIDLDALQDIGITVNISSPGADLLCVQLSSMELVQEIHQLLMDREETCHRTCFSLQLDNVTLDNFAELKSINNLEQGSTIKVVEEPYTMREARIHVRHVRDLLKNLDPADAYNGIDCTSLTYLNTITQGDLLDKKRTRPDSVDCTPPEYVTPGVSDPPILPLHPNVKNAKGPQALKVLTTSAWNPPPGPRKLHGDLMYLYVVTMEDKRFHISACSKGFFINQSTDDTFNPKPDNPSHLSHSLIDLLSHISPSFRRAFQTIQKRRTMRHAFERVATPYQVYQWAAPILEHTVDAIRAEDAFSSKLGYEEHIPGQTRDWNEELQTTRELPRKTLPERLLRERAIFKVHGDFVTAATRGAMAVIDGNVLAINPGEDTKMQMFIWNNIFFSMGFDVRDHYKELGGDAAAFVAPRYDLHGVRVYNAVDIEGLYTLGTVVVDYRGYRVTAQSIIPGILEREQEQSVVYGSIDFGKTVLSHPKYLELLRQAGKHLKILPHVVLNERDEPVELCSSVECKGIIGNDGRHYILDLLRTFPPDVNFLKLQDVQLSKELVDMGFPIEHRHKLCCLRQELLEAFIEDRHVNFIRIAAARLQQLTTIKQSEKSEANPVPALEGAEAASKVNGAEKPDDKEKKNEEEEKKERSTSGEARAAAIVNAIREAQSNVATSNEVQAAEVVKRACAAVGSLKEKEFDFRFNPDVFSPGIRHADGEEGTSLAKQKVLVQEAAEFLVLKQIPAFIKEHMSHSSSPIDGQSLTESLHSHGINVRYLGKVIKILSQMPRMDYLHRIAVLELIVRATKHIYYTYMQNTEPLHLSAAISHFLNCLLTNGPVNPAVSSEEAHKKRGNGGKHNKHKSSKGGKGQQQQQTTGNQNGSSSGSSNSSSASDWTLMTPRSLWQQIRKEAKVYWDWELDCDSIETAVSKYGILRISLMRAFCLKVGIQVLLREYNFESKHKPTFGDDDIVNVFPIVKHISPRATDAYNFYTTGQAKIQQGLFKEGYELISGALNLLNNVFGALHQENGSCLRMLARLSYLLGDAQDALAIQQRAVIMSERVNGMDHPSTILEYTHLSLYSFANGHVGMSLKLLYRARYLMVLICGEDHPEVALIDSNISLILHALGEYELSLRFIEHALKLNLKYFGDKDMHVALSYHLMARTQSCMGDFRSALNNEKETYSFYKSQLGENHEKTRDSAECLRLLTQQAVLLQRKMNDIYSSGKLTSDLPPIHITPPSMGSVLDMLNTINGILFVKISRKDIVKVRSEIEKHFKTDSTENEVNDAINSIVAAANNNGEAEDAVSKDIKEQPEAGKQLTNGDKAAATEATSS
